These results are taken from publication PMC10668032.

This is one part of the list. At the low end of the ranking the order means little.

This assay concerns the target SIX1 homeodomain (reference allele) (UniProt Q15475). The experiment in a line: universal protein binding microarray. The settings on record: Universal all-10-mer PBM (8x60K, AMADID 030236), 300 nM GST-tagged protein, Alexa Fluor 488 anti-GST; buffer, salt, pH and temperature not stated; high values mean tight binding; most listed sequences are background and not binding sites; double strand, one strand shown.
On to ATAAACAT, for which the binding signal was -0.0904 E-score.

In the case of AGTCAATA, the binding signal amounted to 0.111 E-score.

For the sequence GTGCCCCA, the binding signal is -0.0235 E-score.

GGCTTGAA: the binding signal is -0.113 E-score.

For the sequence ACCTAATC, the binding signal is 0.0389 E-score.

With ATACATTG, the binding signal stood at 0.218 E-score.

In the case of ATGTGTTC, the binding signal is -0.222 E-score.

For ACTTTAGA, the binding signal was -0.0391 E-score.

Consider ATAGAATG, for which the binding signal amounted to 0.0796 E-score.

On to AGAGCAGC, for which the binding signal is -0.255 E-score.

As to CCGTGTCC, the binding signal was -0.0358 E-score.

Turning to ACCAAAAA, the binding signal was -0.0603 E-score.

In the case of CAGGAGAC, the binding signal is -0.069 E-score.

As to CCAGCCGG, the binding signal was -0.0219 E-score.

On to AGGCATTG, for which the binding signal was -0.254 E-score.

With GCATGGGA, the binding signal is -0.00959 E-score.

As to ACCTTAGC, the binding signal was -0.103 E-score.

Take AAGCGTTG: the binding signal is -0.22 E-score.

In the case of ATAAACTC, the binding signal was -0.0649 E-score.

For the sequence CAAGATCG, the binding signal turned out to be 0.168 E-score.

Turning to CCACATGC, the binding signal is -0.0369 E-score.

On to CTACAGCA, for which the binding signal is -0.0682 E-score.

For the sequence AAAATCCG, the binding signal was determined as 0.175 E-score.

As to GATAGAAC, the binding signal is 0.0184 E-score.

On to CGCTACCA, for which the binding signal is -0.276 E-score.

Turning to ATGATTTC, the binding signal is -0.187 E-score.

As for AAGATAAG, the binding signal was determined as 0.115 E-score.

For ACATATGG, the binding signal came out at 0.0813 E-score.

On to GGTGCAGA, for which the binding signal came to 0.0756 E-score.

For the sequence CCCCTTCA, the binding signal is -0.146 E-score.

With ACCTAGCG, the binding signal was -0.0893 E-score.

For ATTGGCCG, the binding signal is -0.201 E-score.

On to ACAGCCTA, for which the binding signal was -0.119 E-score.

With GCGTATAC, the binding signal worked out at 0.295 E-score.

For ACGAGCAT, the binding signal was -0.0614 E-score.

With GAGTCATC, the binding signal was -0.0135 E-score.

Turning to AGGGTCAC, the binding signal was -0.0511 E-score.

Consider CTACGTGA, for which the binding signal is -0.0784 E-score.

On to CTCTTGTC, for which the binding signal was -0.0196 E-score.

GCATACCC: the binding signal stood at 0.289 E-score.

For GTTGGGTA, the binding signal came to 0.0847 E-score.

Consider ACATAACG, for which the binding signal was -0.128 E-score.

On to GAGCCGCA, for which the binding signal is -0.23 E-score.

As to CCTGTAGC, the binding signal was -0.271 E-score.

Take AAGAGAGT: the binding signal was -0.326 E-score.

Turning to ACCCCAGG, the binding signal was determined as 0.122 E-score.

As for CTCCACTC, the binding signal was -0.126 E-score.

On to AGGGTTAT, for which the binding signal was -0.00877 E-score.

On to AACCTCAC, for which the binding signal is -0.178 E-score.

Regarding CCACTTTC, the binding signal is -0.181 E-score.

For CAGGGAAG, the binding signal is -0.258 E-score.

Take ACCCTTAG: the binding signal came to 0.0833 E-score.

For CCACTCCG, the binding signal was -0.00756 E-score.

Take CTAGTTAA: the binding signal was -0.227 E-score.

Consider CTACTCAG, for which the binding signal is -0.0974 E-score.

As for ATTTGAAG, the binding signal was -0.23 E-score.

As to GAGACGAA, the binding signal was 0.12 E-score.

For the sequence AACGTGGA, the binding signal is -0.153 E-score.

In the case of TGACAGCA, the binding signal is -0.146 E-score.

Turning to ATTATACA, the binding signal is 0.237 E-score.

For the sequence ATAGCGCC, the binding signal worked out at 0.0195 E-score.

On to AACTAAAG, for which the binding signal was -0.0743 E-score.

CCCAGCGG: the binding signal worked out at 0.0341 E-score.

As to GTCGAAGA, the binding signal is -0.091 E-score.

For the sequence GGATGAAA, the binding signal was 0.133 E-score.

CAATCTCG: the binding signal stood at 0.0438 E-score.

On to ATTGACAG, for which the binding signal is -0.212 E-score.

Consider TAAAGTCA, for which the binding signal is -0.2 E-score.

For the sequence CAGAGGAA, the binding signal was -0.102 E-score.

In the case of GCGCGAAC, the binding signal was -0.116 E-score.

Take GACAATGC: the binding signal was -0.19 E-score.

AAAGGTTG: the binding signal is -0.147 E-score.

In the case of AAGTCGAC, the binding signal was -0.0146 E-score.

On to ACTATCAG, for which the binding signal was 0.217 E-score.

For the sequence ATGGTGTG, the binding signal is 0.183 E-score.

Turning to GGATCTAC, the binding signal came to 0.257 E-score.

For the sequence AACACACT, the binding signal was -0.157 E-score.

Regarding AGTGTCAC, the binding signal is 0.253 E-score.

For ACCACGAT, the binding signal stood at 0.139 E-score.

As to GCGGAAGA, the binding signal worked out at 0.0167 E-score.

For AGAGACCG, the binding signal was -0.155 E-score.

Take AGATGACC: the binding signal was -0.0612 E-score.

For GCGCTCAA, the binding signal was -0.135 E-score.

As for ATAGTTCA, the binding signal is -0.0166 E-score.

Consider GCAAAAAA, for which the binding signal is -0.122 E-score.

With CCGCCATA, the binding signal worked out at 0.209 E-score.

As to CGATACTC, the binding signal was 0.454 E-score.

Consider AAACCTTT, for which the binding signal is -0.217 E-score.

For CCTACTTA, the binding signal is -0.00881 E-score.

With GTGCATGA, the binding signal is -0.185 E-score.

Consider ATCTTACC, for which the binding signal was 0.296 E-score.

With AAAGGTAG, the binding signal is -0.085 E-score.

CAGTCGCC: the binding signal was -0.168 E-score.

For ACGGCTCC, the binding signal was 0.0451 E-score.

With CAGACCGG, the binding signal is -0.0211 E-score.

As for CCTTGTTC, the binding signal was -0.141 E-score.

For the sequence GACTTCAC, the binding signal is -0.159 E-score.

For the sequence ATTATAGG, the binding signal was found to be 0.117 E-score.

Regarding GCCATAAA, the binding signal worked out at 0.0397 E-score.

As to GGACATTA, the binding signal was -0.0549 E-score.

As for GTCAGATA, the binding signal stood at 0.273 E-score.

Turning to GAATGTAC, the binding signal is -0.191 E-score.

Consider CGATTGGC, for which the binding signal is -0.225 E-score.

As for ATGCATAC, the binding signal is -0.0354 E-score.

Regarding TCTTAGCA, the binding signal is -0.0178 E-score.

ATGCTGAG: the binding signal was -0.083 E-score.

In the case of TATGACCA, the binding signal is -0.0717 E-score.

GGCTAGAA: the binding signal amounted to 0.0223 E-score.

With CGTCCTCA, the binding signal was -0.137 E-score.

Consider ACTAAGAT, for which the binding signal was determined as 0.152 E-score.

For the sequence GATCATTA, the binding signal worked out at 0.348 E-score.

As to CAGTTGCA, the binding signal was -0.0443 E-score.

For ATGAAAGC, the binding signal is -0.0705 E-score.

As to AATGTGCA, the binding signal is -0.108 E-score.

In the case of GGTCATGA, the binding signal is 0.169 E-score.

As for GGTCCGAA, the binding signal is -0.0438 E-score.

In the case of ACTCCGCC, the binding signal was -0.2 E-score.

For CGAGGTGA, the binding signal came to 0.0978 E-score.

In the case of CCTACGAC, the binding signal was -0.0209 E-score.

Consider GCCGTGAC, for which the binding signal is -0.0143 E-score.

With CGCTCGAC, the binding signal was -0.246 E-score.

On to AAGGTCGG, for which the binding signal is -0.0584 E-score.

For the sequence CGAACGCC, the binding signal is -0.298 E-score.

As to CAATGTCA, the binding signal was -0.0476 E-score.

For CCAGGATA, the binding signal turned out to be 0.38 E-score.

As for CGGCAAGA, the binding signal was determined as 0.00449 E-score.

Turning to AGGCCCCC, the binding signal was -0.281 E-score.

GACGACAA: the binding signal was -0.179 E-score.

GATTCGGC: the binding signal is -0.0368 E-score.

Take AACGATGC: the binding signal is -0.0915 E-score.

On to CAGGGACA, for which the binding signal was -0.155 E-score.

Turning to AACTCATA, the binding signal is -0.159 E-score.

As for ACCATAGT, the binding signal was -0.105 E-score.

As for CTTCGGCC, the binding signal is -0.294 E-score.

With CGTTGGTA, the binding signal stood at 0.0551 E-score.

With ACATCTGG, the binding signal amounted to 0.0442 E-score.

For the sequence CCACAATC, the binding signal amounted to 0.0713 E-score.

For ATATGTCG, the binding signal turned out to be 0.272 E-score.

Turning to TGGATGAA, the binding signal is -0.0436 E-score.

Regarding AAAGGGGC, the binding signal was -0.122 E-score.

With CTGATTAC, the binding signal is -0.00664 E-score.

For GCGCGCGC, the binding signal was -0.152 E-score.

On to CTCAAAGA, for which the binding signal is -0.183 E-score.

GCTCTGAC: the binding signal was -0.225 E-score.

As to GCGTCTGA, the binding signal was -0.068 E-score.

Take GAAGTAAA: the binding signal is -0.192 E-score.

As for AATGATGA, the binding signal was -0.0266 E-score.

Take ATCTTCCG: the binding signal was determined as 0.248 E-score.

Regarding AATCTTAC, the binding signal was -0.00267 E-score.

For GAGGGTTA, the binding signal is -0.129 E-score.

Consider AACCATCC, for which the binding signal stood at 0.00677 E-score.

As to CTATCGAA, the binding signal came to 0.228 E-score.

For AGGCCGAT, the binding signal was found to be 0.153 E-score.

For TCAGGGAA, the binding signal came out at 0.0207 E-score.

As for AGTAAGAA, the binding signal is -0.0678 E-score.

As to CACGCAGC, the binding signal is -0.272 E-score.

Take CACAGGAA: the binding signal is -0.194 E-score.

Consider CACGGCTA, for which the binding signal was -0.0794 E-score.

Consider GCAGTTCC, for which the binding signal was -0.211 E-score.

CGCGTCGC: the binding signal is -0.0916 E-score.

GACGTACC: the binding signal is -0.0221 E-score.

In the case of CAATGACG, the binding signal is -0.0537 E-score.

Consider ACGTGCGC, for which the binding signal is -0.273 E-score.

Consider CTCAGAGA, for which the binding signal was -0.0384 E-score.

On to CCCTCATA, for which the binding signal was -0.0048 E-score.

For the sequence GGGTAGAA, the binding signal is -0.0311 E-score.

For the sequence CACGACGG, the binding signal is -0.0101 E-score.

Turning to CACTGATG, the binding signal is -0.0679 E-score.

Take GTCACGGA: the binding signal was 0.0948 E-score.

Consider AAACCATC, for which the binding signal is 0.113 E-score.

CGTTCGAC: the binding signal was -0.0781 E-score.

Regarding ATCTCCGC, the binding signal turned out to be 0.261 E-score.
